About 530 (0.16%) of roughly 340,000 compounds were called active. Inconclusive results, whose numbers are uncertain, are shown with a selection of clear calls. Cut-off read from the data, not from the text of the source: active = activity change below about -80%; inconclusive = between about -30% and that limit; inactive = weaker than that.
experiment: Small Molecules that selectively kill Giardia lamblia: qHTS; details: Giardia lamblia trophozoite viability; at 7.66 µM; stronger effect = lower value;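 note: parasites exposed to compound for two days anaerobically before the ATP read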
Summary of the method: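 Anaerobic 48 hrs incubation at 37 deg C of 100 trophozoites/well with test compounds; ATPLite 1-Step luminescence, 15-30 min RT, reports cellular ATP as viability.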
% is set by controls: 0 for no effect and ±100 for the full control effect.

Compound | activity change
CC(Cc1ccccc1)[n+]1cc(/N=C(\N)[O-])on1 (stereo not given) | inconclusive: -30.1% [inhibitor]
COC1CCC(OC2CC(C3(C)CCC4(CC(O)C(C)C(C(C)/C=C(\C)C(=O)C(C)CC(C)C(=O)O)O4)O3)OC3(OC(C4OC(O)(CO)C(C)CC4C)CC3C)C2C)OC1C (stereo not given) | inactive: 25.7%
CNC(=O)Oc1ccc(-c2cn3cc(Cl)ccc3n2)cc1 | active: -86.4%
COC(=O)C12OCC34C(CC5C(C)=C(O)C(=O)CC5(C)C3C(O)C1O)OC(=O)C(OC(=O)/C=C(\C)C(C)C)C24 (stereo not given) | inconclusive: -54.5% [inhibitor]
Cc1ccc2c(c1N)C(=O)c1ccccc1C2=O | inactive: -10.9%
CC(=O)OC1C(O)C(C)OC(OC2C(OC(=O)C3CCC4C(C3)OC3(CC(OC(=O)/C=C/c5ccccc5)C(C)CO3)C43CO3)OC(C)C(O)C2OC(C)=O)C1O (stereo not given) | inconclusive: -30.7% [inhibitor]
CCOc1cc2c(cc1OCC)-n1cccc1C(c1cccc(OCC)c1O)NC2 (stereo not given) | inconclusive: -30.4% [inhibitor]
COc1ccc(-c2nn(CCC#N)cc2C(=O)NCc2ccccc2)cc1[N+](=O)[O-] | inconclusive: -30.5% [inhibitor]
CC1=C(N2CC2)C(=O)C(CO)=C(N2CC2)C1=O | inconclusive: -74.2% [inhibitor]
c1ccc2c(c1)[IH]c1ccccc1-2 | active: -98.4%
CC(=NCCC(c1ccccc1)c1ccccc1)c1c(O)n(C)c(=O)n(C)c1=O | inactive: -3.24%
c1ccc(-c2[nH]c(-c3ccccc3)[n+](CC3CO3)c2-c2ccccc2)cc1 (stereo not given) | inconclusive: -32.9% [inhibitor]
COC(=O)C1=C(c2cc3ccccc3o2)C[C@@H]2CC[C@H]1N2C(=O)N1CCCCC1 | inactive: -4.5%
C=CC1CN2CCC1CC2[C@@H](OC(=O)c1ccc(OC)cc1)c1ccnc2ccccc12 (stereo not given in full) | inconclusive: -60.3% [inhibitor]
O=c1c2ccccc2nc(Cc2ccccc2)n1-c1ccc(O)cc1 | inactive: 0.721%
CN1CC[C@]23c4c5ccc(O)c4OC2[C@H](O)C=CC3[C@H]1C5 (stereo not given in full) | inconclusive: -31.1% [inhibitor]
Cc1cc(-c2cc(C)c(N)c(C)c2)cc(C)c1N | inconclusive: -31.3% [inhibitor]
Cc1ccccc1NP(=O)(Oc1ccccc1F)Oc1ccccc1F | inactive: -6.79%
CCn1cc(C=C2C(=O)NC(=O)NC2=O)c2ccccc21 | inactive: 3.19%
C[N+]12CCC(CC1)C(=C(c1ccccc1)c1ccccc1)C2 | inconclusive: -62.9% [inhibitor]

— PubChem BioAssay AID540267 (National Center for Advancing Translational Sciences (NCATS), 2011)
